Here are results for 73 sequences from article PMC10726135.

This is one part of the list. At the low end of the ranking, values are background and their order means little. Measured with an extract: partners may take part in the binding.

The target in this assay is T1, HNF4alpha8 (COS-7 nuclear extract) (UniProt P41235-5).
T1 sequence: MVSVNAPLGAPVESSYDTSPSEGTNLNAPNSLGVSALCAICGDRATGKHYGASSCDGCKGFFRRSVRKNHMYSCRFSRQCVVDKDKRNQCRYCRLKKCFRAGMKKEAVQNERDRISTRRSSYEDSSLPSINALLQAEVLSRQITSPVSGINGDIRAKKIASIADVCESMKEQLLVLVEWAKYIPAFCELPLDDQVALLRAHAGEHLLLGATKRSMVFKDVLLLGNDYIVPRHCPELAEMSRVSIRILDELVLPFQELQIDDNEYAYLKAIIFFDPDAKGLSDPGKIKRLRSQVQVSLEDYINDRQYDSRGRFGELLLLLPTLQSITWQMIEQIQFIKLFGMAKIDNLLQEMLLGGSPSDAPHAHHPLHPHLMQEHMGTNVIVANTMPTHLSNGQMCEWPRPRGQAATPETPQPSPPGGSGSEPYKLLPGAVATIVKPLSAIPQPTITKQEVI
Kind of assay: protein-binding microarray. The conditions noted are these: COS-7 nuclear extract on double-stranded Agilent 4x180k PBM; binding buffer, salt, pH and temperature not given; high values mean tight binding; double strand, one strand shown; sequences stand for … in …GCCTAGGGAGATTAGAGTATCGGTCGA
On to AGCAGGTTGTACCTTGACCCAAGAAATAAA, for which the binding signal (log2 normalized intensity) was 4.67.
Regarding AGGAGATTTGGCTTTGAATTCCACTTCTAC, the binding signal (log2 normalized intensity) is -0.378.
For the sequence CAGTGGGGACGCCTTCCCCTGCCACTTTCA, the binding signal (log2 normalized intensity) is -1.25.
On to GTAAACTGGCCAGAAGGTCAGAGATCAGGT, for which the binding signal (log2 normalized intensity) is 2.47.
Regarding GTGAGCATGGCTGTGTTCCAATAAACTTCA, the binding signal (log2 normalized intensity) was -0.863.
For TTGCTCTGCTTAAACCTTTCAAGGGATTCC, the binding signal (log2 normalized intensity) is -0.439.
As for TGCCACGCAATGCATAGCAGAAACATAGAA, the figure is -1.35; as for CTGCCAAGACACAGAGAAAAAGAAGGTTGG, -1.21.
As for GATCAAGATACAGGTCAGACCCTGGAATTC, the binding signal (log2 normalized intensity) came out at 1.33.
As to GCAAGAAGAAGGTGGACATCGTGGTTGCAA, the binding signal (log2 normalized intensity) is -0.156.
The result for TCTCTCTGGCCTGTGGGGAGGTTATCTCGG reads 1.48; that for CCATCCACGGGTCCATGATTGCTGTCTACT, -0.391.
The result for CCTCAAATACTCTGAGTAAACACAGACTTT reads 1.31; that for ACTCCTCTGTACAGCTCTTGTGCTCTGGAC, 1.27; that for GCCAAACTCACAGCTTTTATGTCAAACCAC, -1.32.
The result for GCTGGAACTTGCTTCCTTATCTATATTTGC reads -0.158; that for GCAAGGACGTGACCTTTATGGGAAAAAAAA, 2.16; that for GCTACTGACCAGATGTTATTACTTAATGCT, -1.37.
Take GATAGAGAAAGAAAAAGTACACACCTGCAA: the binding signal (log2 normalized intensity) was -1.35.
CTCCTTTTGTGAGAGGTCAATGTCCAGTTC: the binding signal (log2 normalized intensity) came to 7.01.
Take AGGTATTGCCCAGTATTGATGTGAGGGTAG: the binding signal (log2 normalized intensity) amounted to 0.794.
Consider TCTCAAAAGTTTTTCCCTTCTGTTAGAATG, for which the binding signal (log2 normalized intensity) was determined as 0.558.
As for CACCCCAGTGTGTTGCATGCCACAGCGCCC, the figure is 1.05; as for AGCACTGGAATGTCTCTGGTTGAAGGGGAG, -1.25.
For TAGTTAGAGTCACTGATAAGTCTGCTTGCC, the binding signal (log2 normalized intensity) is -0.858.
For AGGTTTGGCTGAGAGGGATAAAAGGGGAAA, the binding signal (log2 normalized intensity) is -1.28.
For CTCCCTTTGATGCGGTCAGAGTTCATTTGG, the binding signal (log2 normalized intensity) stood at 4.02.
The result for TGTGGACTTTTTCCTGAGGGCAGGAGGAGC reads 1.03; that for TGACCTTGCAGTGGCAAGGCAAAAGAGACA, 0.892; that for GTTAAACATTCAGATTCCTGAGCCCAGATC, -1.43.
As for GAGAAAACTCCCTCAGAGATGTTTAGTGAG, the figure is -1.08; as for CACAGCTCAGATCACAAAAGATGGAACAAG, -1.31.
CCTGATGAAGTAAATGCAGTTTGTCAAGTG: the binding signal (log2 normalized intensity) was determined as 0.623.
As for CTCTGGCCGGAGGGGAGGTTATCTCGGGGC, the figure is -1.02.
Regarding CTCTCGGGCCAGCTGTACAAATAAAGGATG, the binding signal (log2 normalized intensity) is -1.38.
Regarding TGATTATAAACCTGCCTACATCAAGAGGAT, the binding signal (log2 normalized intensity) is -1.13.
As for TGAGCCTCCTCCCTCTCTCTCTTAAGAACG, the binding signal (log2 normalized intensity) amounted to 0.386.
As for AACTCCCTCAGAGATGTTTAGTGAGCTGTC, the figure is -0.195; as for CATCTTCACGCAATACTAGCAATAACCACA, -1.42; as for GCATTTTTAAAATGTTTCAAAGTTTTTCCC, 0.728.
In the case of TTCTATCCCCTTATCTAAATGGAGTTACTG, the binding signal (log2 normalized intensity) is 0.966.
Take ATAAGGTAACAGGCCAAAGGGCAAGAACAA: the binding signal (log2 normalized intensity) amounted to 3.1.
As for GCACACACCAAAGCCCAAGGGATCGTCCAA, the figure is -1.33.
The result for CAGACCCAAAGGTTAAGGAAACAAGGGTAC reads 0.829; that for GAGGGAGAATAAGGGTTCATCTGACTGGAA, 0.363; that for TGACCGTTCTCTCCGGGTAAAGGTGAAGGC, 1.23.
As for TGAGATTACGTAAGTGAAAGTACACAGTGC, the figure is 1.12; as for TGGACCAAGCTCTAGCATCCCTCTCTTGCT, -1.35; as for CCAGGACCTTTGCTCATGTCCTCTTGCTTC, 2.32.
Regarding GAACGCTGCGCATACCATATGCATTCCTGC, the binding signal (log2 normalized intensity) is -1.3.
In the case of ACTGGTTCCTGCACCCGGGCAGCCTGTGGC, the binding signal (log2 normalized intensity) is -1.29.
On to AATCAAACTCTCTGTGGATGTATGTCCAGA, for which the binding signal (log2 normalized intensity) amounted to 1.68.
Regarding AAGTAGAATGAAAGCGGCTCAGGAAACAGC, the binding signal (log2 normalized intensity) was -1.3.
ATACTATTCATCCTCCAAAACCCAGTTCAT: the binding signal (log2 normalized intensity) is 3.23.
AGATGATAAGCCCTGAGTAGTTCTTCTGGT: the binding signal (log2 normalized intensity) was found to be 0.113.
Take AGAGCATTTCAAACCTTTGCCCCACTCTCC: the binding signal (log2 normalized intensity) is 4.38.
With TCTTATTTACCGAAATGTGGGTGAGGCTGT, the binding signal (log2 normalized intensity) was determined as 1.67.
The result for AGAACTTCTCATCTTATCTAGTTTCCTAGC reads -1.01; that for CCAACCCAACTAGAATGGAACTGAAGGCAG, -1.4; that for AGGCTGAGGCAGGATGACTGCTTGAGTCCA, 1.35.
GAAAGCCTGTTTGCTTCTGCTGTTTGTTTC: the binding signal (log2 normalized intensity) came out at 1.53.
As for ATCCTTATGGTCTCTTCCAAAGCTGAAATG, the figure is 0.826; as for AGCAGCCTCAGTGGCTCACAAATGGAGTTT, 1.92.
With GATTCCACCTTAGAGGGACGAAGGTCACTA, the binding signal (log2 normalized intensity) was found to be 4.7.
As for GATTAGATAACATCTGGACTTTACACAGAC, the figure is 4.72.
The result for GAAACATCTACCCTTGACAATTCCTATTCA reads -1.34; that for TTCCCTATCCCGCTGCTTCCACCAGGGCTA, -1.35; that for CTCAGAACTACCAATGTTTACCAGCTCTGT, -1.41.
For AACAAAGTCCAAATTCCTAACTATGGTTGA, the binding signal (log2 normalized intensity) is 2.05.
As for AACCTTTCCCTCTCTCCTGGTTTGGGGCCT, the figure is 1.37.
The result for ACTCACTATCAGGAAACTCTTTCCTAACAG reads -1.22; that for ATCATGAACTGAGTACTATCAGATCCACCA, -1.06.
The result for GTAATCCCATTTCCCTTGTTTACCTTGGTG reads 1.58.
